Entries with a single value are a further part of the results.
Tested on: human term placenta
Assay: Effect of dexamethasone and GnRH on prostanoid release from perifused human term placental explants
Format: cell-based
Conditions: dexamethasone 10^−8 M, seventh hour of incubation
Experimental: Medium 199 (x2) with Earles' Modified Salts, bicarbonate and L-glutamine without phenol red was purchased from Gibco (Chagrin Falls, Ohio). Penicillin, streptomycin, bovine serum albumin and Indomethacin were obtained from Sigma Chemicals (St. Louis, Mo.). Placental perifusion was performed essentially as described in Example 3.
Samples were stored at −20° C. until assayed for PGE, PGF, PGFM, Tx B2 or 6-keto-PGF1α. Recovery and stability of these prostanoids in this perifusion system and during storage were assessed by spiking the medium with prostanoids and perifusing it through empty chambers and collecting samples as described above. In addition, samples were frozen and thawed repeatedly and re-assayed. Prostanoid recovery and stability were nearly 100%. Thus, no data correction for procedural losses was done. Radioimmunoassays were performed as described in Example 1.
The perifusion system described at Examples 2 and 3 was used in the present study. […] It took one hour for the input medium to pass through the perifusion tubing and chamber and to be collected in the sample tube. Four replicated chambers were perifused with each of the three experimental media, while, in another four replicated chambers, the perifusion was continued with the control Medium 199.
Hormonal values for a given chamber were normalized to the fifth-hour prostanoid release for that chamber, expressed as a percent release over the fifth-hour release. […] Thus, the release of each chamber was related to functional competence at the time of treatment rather than to its mass.
The mean release for replicate chambers from a given placenta for each particular hormone in the presence of GnRH, dexamethasone, or GnRH and dexamethasone at each point was calculated. Similar calculations were done for the control chambers. The mean data for each treatment for the three different placentas were subjected to statistical analyses. Thus, the response for each placenta was weighed equally. Two-way analysis of variance was used to determine if there was significant main effect or interaction.
In addition, the cumulative release for each hormone from each placenta for each treatment was calculated. One-way analysis of variance was used to test for statistically significant effects of treatment. The points of significant variation were determined using Student-Newman-Keuls' test.

Compound: C[C@@H]1C[C@H]2[C@@H]3CCC4=CC(=O)C=C[C@]4(C)[C@@]3(F)[C@@H](O)C[C@]2(C)[C@@]1(O)C(=O)CO [dexamethasone]
- release as percent of control (6-keto-PGF1alpha release): 63%
- release as percent of control (PGF release): 52%
- release as percent of control (PGFM release): 65%
- release as percent of control (TxB2 release): 53%

Source: patent US6461613B2, “Methods and compositions for the selective regulation of chorionic prostanoids” (priority 1993, dated 2002)
